Assay results from the supplement of paper PMC4967469.
A lower IC50 marks a more sensitive line; a limit (>, <) means that the fit lies beyond the doses tested. AUC sums up the same curve from the lowest dose to the 256-fold higher top dose: 1 means no effect, lower means more sensitive. For some assays here: A top dose marked as inferred was derived from the fitted curves, not read from the paper. For some assays here: Drugs with an entry number were screened twice under separate entries, and the two screens often disagree.

How the values were obtained:
Assay in all cases: Viability of human cancer cell lines after 72 h of drug (GDSC screen)
GDC0941 = compound: CS(=O)(=O)N1CCN(Cc2cc3nc(-c4cccc5[nH]ncc45)nc(N4CCOCC4)c3s2)CC1 [GDC0941]; conditions: top dose 4 µM; screen: GDSC drug entry 1527; top dose inferred
Protocol: (§1)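 Human cancer cell lines in 384-well plates, medium with 10% serum, drug for 72 h over a 256-fold dose range (nine 2-fold or five 4-fold steps up to the top dose). Adherent lines were fixed and stained with the nucleic acid dye Syto60, suspension lines read with resazurin; signal relative to control wells, capped at 0 and 100%. One two-parameter sigmoid per drug and line, fitted in a mixed model over all curves with the slope shared within a line.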

AR-42 = compound: CC(C)[C@H](C(=O)Nc1ccc(C(=O)NO)cc1)c1ccccc1 [AR-42]; conditions: top dose 5.12 µM; top dose inferred
Protocol: as §1

CEP-701 = compound: C[C@]12O[C@H](C[C@]1(O)CO)n1c3ccccc3c3c4c(c5c6ccccc6n2c5c31)CNC4=O [CEP-701]; conditions: top dose 2 µM; top dose inferred
Protocol: as §1

Pazopanib = compound: Cc1ccc(Nc2nccc(N(C)c3ccc4c(C)n(C)nc4c3)n2)cc1S(N)(=O)=O [Pazopanib]; conditions: top dose 8 µM
Protocol: as §1

SB 216763 = compound: Cn1cc(C2=C(c3ccc(Cl)cc3Cl)C(=O)NC2=O)c2ccccc21 [SB 216763]; conditions: top dose 10 µM; top dose inferred
Protocol: as §1

Sunitinib = compound: CCN(CC)CCNC(=O)c1c(C)[nH]c(/C=C2\C(=O)Nc3ccc(F)cc32)c1C [Sunitinib]; conditions: top dose 8 µM
Protocol: as §1

MG-132 = compound: CC(C)C[C@@H](C=O)NC(=O)[C@H](CC(C)C)NC(=O)[C@H](CC(C)C)NC(=O)OCc1ccccc1 [MG-132]; conditions: top dose 1 µM
Protocol: as §1

Cell Line	AUC (GDC0941)	IC50 (GDC0941)	AUC (AR-42)	IC50 (AR-42)	AUC (CEP-701)	IC50 (CEP-701)	AUC (Pazopanib)	IC50 (Pazopanib)	AUC (SB 216763)	IC50 (SB 216763)	AUC (Sunitinib)	IC50 (Sunitinib)	AUC (MG-132)	IC50 (MG-132)
697 (lymphoblastic leukaemia, suspension)	0.676	691 nM	0.174	44.4 nM	0.217	23.3 nM	0.954	> 8000 nM	0.963	> 10000 nM	0.545	646 nM	0.685	182 nM
A3-KAW (B-cell lymphoma, suspension)	0.9	3280 nM	0.325	117 nM	0.629	261 nM	0.956	> 8000 nM	0.992	> 10000 nM	0.708	1670 nM	0.853	547 nM
A4-Fuk (B-cell lymphoma, suspension)	0.775	1650 nM	0.91	> 5120 nM	0.364	51.8 nM	0.983	> 8000 nM	0.985	> 10000 nM	0.649	1320 nM	0.693	224 nM
A101D (melanoma, adherent)	0.629	617 nM	0.581	559 nM	0.606	262 nM	0.91	> 8000 nM	0.907	> 10000 nM	0.754	3250 nM	0.418	35.3 nM
ALL-PO (lymphoblastic leukaemia, suspension)	0.945	> 4000 nM	0.165	28 nM	0.239	20.8 nM	0.908	> 8000 nM	0.846	7900 nM	0.244	86.6 nM	0.744	328 nM
ALL-SIL (T-cell leukaemia, suspension)	0.684	751 nM	0.251	70.2 nM	0.528	148 nM	0.814	3600 nM	0.975	> 10000 nM	0.635	1120 nM	0.838	546 nM
BB49-HNC (head and neck, adherent)	0.463	190 nM	0.897	> 5120 nM	0.785	1260 nM	0.949	> 8000 nM	0.913	> 10000 nM	0.75	3600 nM	0.766	524 nM
BB65-RCC (kidney, adherent)	0.672	813 nM	0.575	532 nM	0.301	31.4 nM	0.855	7990 nM	0.981	> 10000 nM	0.838	6620 nM	0.718	288 nM
BC-1 (B-cell lymphoma, suspension)	0.823	1920 nM	0.405	183 nM	0.857	1260 nM	0.902	7720 nM	0.976	> 10000 nM	0.891	6880 nM	0.873	722 nM
BE-13 (lymphoblastic leukaemia, suspension)	0.94	> 4000 nM	0.233	57.6 nM	0.563	183 nM	0.957	> 8000 nM	0.932	> 10000 nM	0.798	3530 nM	0.987	> 1000 nM
BL-41 (Burkitt lymphoma, suspension)	0.88	2510 nM	0.277	89.8 nM	0.485	115 nM	0.947	> 8000 nM	0.922	9090 nM	0.746	2040 nM	0.531	74.4 nM
CA46 (Burkitt lymphoma, suspension)	0.59	450 nM	0.163	27.1 nM	0.887	> 2000 nM	0.896	> 8000 nM	0.983	> 10000 nM	0.88	> 8000 nM	0.959	> 1000 nM
CAS-1 (glioma, adherent)	0.782	2350 nM	0.673	1160 nM	0.839	> 2000 nM	0.807	6050 nM	0.978	> 10000 nM	0.97	> 8000 nM	0.583	115 nM
COR-L279 (small cell lung carcinoma, suspension)	0.84	2330 nM	0.297	92.5 nM	0.808	902 nM	0.958	> 8000 nM	0.991	> 10000 nM	0.911	> 8000 nM	0.88	842 nM
CTV-1 (acute myeloid leukaemia, suspension)	0.939	> 4000 nM	0.434	220 nM	0.65	297 nM	0.888	5920 nM	0.948	> 10000 nM	0.717	1770 nM	0.751	274 nM
D-283MED (medulloblastoma, adherent)	0.972	> 4000 nM	0.991	> 5120 nM	0.504	128 nM	0.983	> 8000 nM	0.99	> 10000 nM	0.9	> 8000 nM	0.981	> 1000 nM

Cell Line	AUC (GDC0941)	IC50 (GDC0941)	AUC (AR-42)	IC50 (AR-42)	AUC (CEP-701)	IC50 (CEP-701)	AUC (Pazopanib)	IC50 (Pazopanib)	AUC (SB 216763)	IC50 (SB 216763)	AUC (Sunitinib)	IC50 (Sunitinib)	AUC (MG-132)	IC50 (MG-132)
DND-41 (T-cell leukaemia, suspension)	0.905	> 4000 nM	0.357	136 nM	0.531	151 nM	0.971	> 8000 nM	0.982	> 10000 nM	0.79	3100 nM	0.707	221 nM
Daudi (Burkitt lymphoma, suspension)	0.72	952 nM	0.397	173 nM	0.696	409 nM	0.822	3910 nM	0.967	> 10000 nM	0.84	4530 nM	0.81	445 nM
EM-2 (chronic myeloid leukaemia, suspension)	0.698	978 nM	0.41	176 nM	0.588	224 nM	0.947	> 8000 nM	0.929	> 10000 nM	0.871	> 8000 nM	0.854	962 nM
ES4 (Ewing sarcoma, adherent)	0.637	–	0.769	2220 nM	0.489	116 nM	0.952	> 8000 nM	0.978	> 10000 nM	0.77	3510 nM	0.843	865 nM
ES6 (Ewing sarcoma, adherent)	0.913	> 4000 nM	0.69	1250 nM	0.821	1540 nM	0.822	6210 nM	0.982	> 10000 nM	0.588	926 nM	0.312	16.3 nM
ETK-1 (biliary tract, adherent)	0.564	383 nM	0.6	627 nM	0.754	753 nM	0.963	> 8000 nM	0.955	> 10000 nM	0.63	1200 nM	0.963	> 1000 nM
EW-3 (Ewing sarcoma, adherent)	0.628	594 nM	0.477	275 nM	0.73	628 nM	0.975	> 8000 nM	0.984	> 10000 nM	0.871	> 8000 nM	0.974	> 1000 nM
EW-13 (Ewing sarcoma, suspension)	0.77	1680 nM	0.667	984 nM	0.828	1410 nM	0.89	> 8000 nM	0.982	> 10000 nM	0.954	> 8000 nM	0.978	> 1000 nM
MOLP-8 (myeloma, suspension)	–	–	0.211	47.3 nM	0.531	151 nM	0.972	> 8000 nM	0.987	> 10000 nM	0.761	2740 nM	0.721	258 nM
NCI-SNU-16 (stomach, suspension)	–	–	0.815	2410 nM	0.757	615 nM	0.976	> 8000 nM	0.979	> 10000 nM	0.703	1720 nM	0.874	780 nM
NTERA-2 cl.D1 (testis, adherent)	–	–	0.618	671 nM	0.644	312 nM	0.843	5610 nM	0.957	> 10000 nM	0.824	4700 nM	0.501	62.8 nM
OPM-2 (myeloma, suspension)	–	–	0.32	112 nM	0.791	723 nM	0.969	> 8000 nM	0.994	> 10000 nM	0.805	3170 nM	0.609	117 nM
RCC10RGB (kidney, adherent)	–	–	0.786	> 5120 nM	0.828	> 2000 nM	0.915	> 8000 nM	0.953	> 10000 nM	0.96	> 8000 nM	0.943	> 1000 nM
SK-MM-2 (myeloma, suspension)	–	–	0.582	543 nM	0.929	> 2000 nM	0.966	> 8000 nM	0.987	> 10000 nM	0.853	6720 nM	0.72	272 nM
SW954 (urogenital system, adherent)	–	–	0.39	159 nM	0.633	293 nM	0.859	6790 nM	0.909	> 10000 nM	0.823	4780 nM	0.898	> 1000 nM
WIL2-NS (lymphoid neoplasm, suspension)	–	–	0.181	45.5 nM	0.69	378 nM	0.922	> 8000 nM	0.965	> 10000 nM	0.775	2590 nM	0.763	298 nM
